Measured values reported in the supplement of paper PMC4604168 (melanoma cell lines).
The list shows a part of the results. Repeats are few or missing, and single values can be far off.

tested on: 501Mel; experiment: cell count relative to DMSO control; melanoma cells; higher = more viable cells; settings: library dose: standard library concentration; 72 h
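Further: cells treated in 1,536-well plates, then fixed and DAPI-stained, with nuclei counted from automated high-throughput microscope images.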

| SMILES | cell count [%] |
| --- | --- |
| O=C(O)c1ccc2c(c1)nc(Nc1cccc(Cl)c1)c1ccncc12 + O=c1cc(-c2cccc3c2Sc2ccccc2S3)oc(N2CCOCC2)c1 [KU55933] (first compound 2 µM, partner dose 5 µM) | 78.2 |
| O=C(Nc1ccccc1)c1cc([N+](=O)[O-])ccc1Cl + COc1ccc(COc2ccc(Cc3cnc(N)nc3N)cc2OC)cc1 [GW2580] (first compound 10 µM, partner dose 5 µM) | 52.4 |
| O=C(O)[C@@H]1[O][Sb](=[O])([O][Sb]2(=[O])[O][C@H]([C@H](O)CO)[C@H](O)[C@H](C(=O)O)[O]2)[O][C@H]([C@H](O)CO)[C@@H]1O (stereo not given in full) [stibogluconate] + O=c1cc(-c2cccc3c2Sc2ccccc2S3)oc(N2CCOCC2)c1 [KU55933] (first compound 10 µM, partner dose 5 µM) | 70 |
| O=C(O)c1ccc2c(c1)nc(Nc1cccc(Cl)c1)c1ccncc12 + COc1ccc(-c2ccc3c(N4CCOCC4)nc(N4C[C@@H](C)O[C@@H](C)C4)nc3n2)cc1CO [KU0063794] (first compound 2 µM, partner dose 0.1 µM) | 96 |
| O=C(Nc1ccccc1)c1cc([N+](=O)[O-])ccc1Cl + CCN(CC)CCCCNc1ncc2cc(-c3cc(OC)cc(OC)c3)c(NC(=O)NC(C)(C)C)nc2n1 [PD173074] (first compound 10 µM, partner dose 0.5 µM) | 85.7 |
| Cn1nnc2c(C(N)=O)ncn2c1=O [temozolomide] + COc1cc2ncnc(Nc3ccc(Oc4ccccc4)cc3)c2cc1OC [SrcI1] (first compound 10 µM, partner dose 10 µM) | 93.3 |
| O=C(Nc1ccccc1)c1cc([N+](=O)[O-])ccc1Cl + COC(=O)c1sccc1S(=O)(=O)Nc1ccc(Nc2ccccc2)cc1OC [GSK0660] (first compound 10 µM, partner dose 5 µM) | 83.3 |
| Cc1cc(N2CCOCC2)cc2[nH]c(-c3c(NC[C@@H](O)c4cccc(Cl)c4)cc[nH]c3=O)nc12 + c1cc(-c2cnn3cc(-c4ccc(OCCN5CCCCC5)cc4)cnc23)ccn1 [Dorsomorphin] (first compound 1 µM, partner dose 2 µM) | 42.7 |
| Cc1cc(N2CCOCC2)cc2[nH]c(-c3c(NC[C@@H](O)c4cccc(Cl)c4)cc[nH]c3=O)nc12 + COc1ccc(COc2ccc(Cc3cnc(N)nc3N)cc2OC)cc1 [GW2580] (first compound 1 µM, partner dose 5 µM) | 71.2 |
| Cn1nnc2c(C(N)=O)ncn2c1=O [temozolomide] + O=C(Nc1ccccc1)c1cc([N+](=O)[O-])ccc1Cl [GW9662] (first compound 10 µM, partner dose 10 µM) | 58 |
| O=C(Nc1cc(C(F)(F)F)cc(C(F)(F)F)c1)c1cc(Cl)ccc1O + COc1ccc(-c2ccc3c(N4CCOCC4)nc(N4C[C@@H](C)O[C@@H](C)C4)nc3n2)cc1CO [KU0063794] (first compound 0.08 µM, partner dose 0.1 µM) | 90 |
| O=C(O)[C@@H]1[O][Sb](=[O])([O][Sb]2(=[O])[O][C@H]([C@H](O)CO)[C@H](O)[C@H](C(=O)O)[O]2)[O][C@H]([C@H](O)CO)[C@@H]1O (stereo not given in full) [stibogluconate] + COc1ccc(-c2ccc3c(N4CCOCC4)nc(N4C[C@@H](C)O[C@@H](C)C4)nc3n2)cc1CO [KU0063794] (first compound 10 µM, partner dose 0.1 µM) | 93.1 |
| O=C(O)c1ccc2c(c1)nc(Nc1cccc(Cl)c1)c1ccncc12 + COC(=O)c1sccc1S(=O)(=O)Nc1ccc(Nc2ccccc2)cc1OC [GSK0660] (first compound 2 µM, partner dose 5 µM) | 111 |
| O=C(O)c1ccc2c(c1)nc(Nc1cccc(Cl)c1)c1ccncc12 + O=C(O)C(=O)Nc1sc2c(c1C(=O)O)CCNC2 [TCS401] (first compound 2 µM, partner dose 8.33333 µM) | 71.8 |
| O=C(O)c1ccc2c(c1)nc(Nc1cccc(Cl)c1)c1ccncc12 + Oc1cc(-c2nc(-c3ccccc3)[nH]c2-c2ccncc2)ccc1Cl [L779450] (first compound 2 µM, partner dose 1 µM) | 65.4 |
| O=C(Nc1ccccc1)c1cc([N+](=O)[O-])ccc1Cl + O=C(O)C(=O)Nc1sc2c(c1C(=O)O)CCNC2 [TCS401] (first compound 10 µM, partner dose 8.33333 µM) | 70.2 |
| Cn1nnc2c(C(N)=O)ncn2c1=O [temozolomide] + O=C1NC(=O)/C(=C/c2ccc(-c3ccc(F)cc3O)o2)S1 [AS252424] (first compound 10 µM, partner dose 5 µM) | 68.7 |
| O=C(Nc1ccccc1)c1cc([N+](=O)[O-])ccc1Cl + O=c1cc(-c2cccc3c2Sc2ccccc2S3)oc(N2CCOCC2)c1 [KU55933] (first compound 10 µM, partner dose 5 µM) | 83 |
| Cn1nnc2c(C(N)=O)ncn2c1=O [temozolomide] + COC(=O)c1sccc1S(=O)(=O)Nc1ccc(Nc2ccccc2)cc1OC [GSK0660] (first compound 10 µM, partner dose 5 µM) | 79.8 |
| O=C(Nc1cc(C(F)(F)F)cc(C(F)(F)F)c1)c1cc(Cl)ccc1O + c1cc(-c2cnn3cc(-c4ccc(OCCN5CCCCC5)cc4)cnc23)ccn1 [Dorsomorphin] (first compound 0.08 µM, partner dose 2 µM) | 68.7 |
| O=C(O)[C@@H]1[O][Sb](=[O])([O][Sb]2(=[O])[O][C@H]([C@H](O)CO)[C@H](O)[C@H](C(=O)O)[O]2)[O][C@H]([C@H](O)CO)[C@@H]1O (stereo not given in full) [stibogluconate] + O=C1NC(=O)/C(=C/c2ccc(-c3ccc(F)cc3O)o2)S1 [AS252424] (first compound 10 µM, partner dose 5 µM) | 98.1 |
| O=C(O)[C@@H]1[O][Sb](=[O])([O][Sb]2(=[O])[O][C@H]([C@H](O)CO)[C@H](O)[C@H](C(=O)O)[O]2)[O][C@H]([C@H](O)CO)[C@@H]1O (stereo not given in full) [stibogluconate] + CCCCCCCCCCCC1=C(O)C(=O)C=C(O)C1=O [Embelin] (first compound 10 µM, partner dose 6 µM) | 92.8 |
| Cn1nnc2c(C(N)=O)ncn2c1=O [temozolomide] + N#Cc1c(O)c2c(-c3ccc(-c4ccccc4O)cc3)csc2[nH]c1=O [A769662] (first compound 10 µM, partner dose 10 µM) | 82.7 |
| Cc1cc(N2CCOCC2)cc2[nH]c(-c3c(NC[C@@H](O)c4cccc(Cl)c4)cc[nH]c3=O)nc12 + Cc1cc([N+](=O)[O-])ccc1NS(=O)(=O)c1cc(Cl)ccc1Cl [FH535] (first compound 1 µM, partner dose 5 µM) | 57 |
| O=C(Nc1cc(C(F)(F)F)cc(C(F)(F)F)c1)c1cc(Cl)ccc1O + COc1cc2ncnc(Nc3ccc(Oc4ccccc4)cc3)c2cc1OC [SrcI1] (first compound 0.08 µM, partner dose 10 µM) | 65.7 |
